Test results as given in PubChem BioAssay AID493208 (National Center for Advancing Translational Sciences (NCATS), 2011).
The whole screen tested about 44,000 compounds, of which about 340 (0.77%) were called active. Roughly 5% stayed inconclusive and do not appear here. The call rests on the fitted dose curve; in most records, active means well fitted inhibition curve with a large enough effect; inconclusive means small, poorly fitted or top-dose-only effect; inactive means flat fitted curve, though single readings scatter. The list shows a part of the results.

Experiment: Acumen qHTS Assay for Inhibitors of the mTORC1 Signaling Pathway in MEF (Tsc2-/-, p53-/-) Cells: Sytravon;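 further: plate controls were DMSO for no effect and rapamycin for full effect; nearly all actives have a fitted effect of over 50% in size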
Details: phospho-rpS6 immunofluorescence/PI, 24 h; series mostly up to 38.3 µM; activity change, negative = inhibition: at the top concentration
How it was run: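 Tsc2-/-, p53-/- MEFs (empty-vector stable line) in DMEM + 10% FBS were treated with compounds 24 h at 37 degree Celsius, fixed, and immunostained for phospho-rpS6 (Alexa-488) with propidium iodide counterstain. Laser-scanning cytometry gave % positive cells, normalized against 7.5 nM rapamycin and DMSO.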

Activity change, negative = inhibition, inactive:
Cc1ccc(N2C(=O)CCSC23C(=O)N(Cc2ccc(F)cc2)c2ccccc23)cc1 (stereo unspecified) -4.06%
CCOc1cccc(C(=O)N(Cc2ccc(F)cc2)Cc2ccco2)c1 3.56%
O=C1CC(c2ccc(F)cc2F)c2cc3c(cc2N1)OCO3 (stereo unspecified) -12.4%
COc1ccc(Cl)cc1NC(=O)C1CCN(S(=O)(=O)c2ccc(F)cc2)CC1 -0.48%
COc1ccc(C(=O)N(c2ccc(C)cc2)S(=O)(=O)c2ccc(C)cc2)cc1 -16.4%
COc1ccc(OC)c(NC(=O)Cn2c(=O)n(-c3ccc(Cl)cc3)c(=O)c3c(C)c(C)sc32)c1 0.257%
Cc1ccc(N2C(=O)CS(=O)(=O)C23C(=O)N(Cc2ccc(Cl)cc2)c2ccccc23)cc1C (stereo unspecified) -5.77%
COCCn1c(SCC(=O)c2ccc(F)cc2)nc2cc(C(=O)NC3CCCC3)ccc2c1=O 3.97%
CC1CCN(C(=O)CSc2nnc(NC(=O)Nc3ccccc3)s2)CC1 2.77%
COC(=O)c1ccccc1NC(=O)Cn1c(CCC(=O)O)ccc1-c1ccc(C)cc1 2.25%
Cc1ccc2c(c1)N(C(=O)CCC(=O)NCc1cccs1)CC(C)O2 (stereo unspecified) -9.2%
CCOC(=O)C1CCN(C(=O)Cn2ncc3c4ccccc4n(Cc4ccccc4)c3c2=O)CC1 -0.0054%
Cc1cccc(CC(=O)Nc2c(C(=O)Nc3cccc(F)c3)oc3ccccc23)c1 1.38%
Cc1ccc(NC(=O)CCSc2nc(-c3ccc4c(c3)OCO4)cc(C(F)(F)F)n2)c(C)c1 -10.6%
CCOc1ccccc1C(=O)NCc1ccc2c(c1)CCN2C(=O)c1ccccc1 -1.58%
Cc1cccc(Nc2nc3c(S(=O)(=O)c4ccc(Br)cc4)nnn3c3ccsc23)c1C 4.62%
Cc1cc(C)c2oc(-c3cccc(NC(=O)COc4ccccc4Cl)c3C)nc2c1 1.53%
CC1=C(C(=O)Nc2cccnc2)C(c2ccccc2Cl)n2nc(-c3ccccc3)nc2N1 (stereo unspecified) 3.76%
Cc1cc(NC(=O)CSc2ncc(C(=O)Nc3ccc(C)c(C)c3)c(=O)n2C)no1 -8.89%
CS(=O)(=O)c1ncc(Cl)c(C(=O)Nc2c(C(=O)c3ccc(Cl)cc3)oc3ccccc23)n1 0.637%
COc1cccc(-c2nc3c(C#N)c[nH]n3c2NC2CCC(C)CC2)c1 (stereo unspecified) -21.6%
COc1ccc(CCNC(=O)c2ccc(Cn3c(SCC(=O)NCCC(C)C)nc4cc5c(cc4c3=O)OCO5)cc2)cc1OC -4.91%
Clc1cccc(-n2ncc3c(NCCCN4CCOCC4)ncnc32)c1 14.2%
Cc1ccc2nc(CN3CCN(S(=O)(=O)c4ccc(C)c(C)c4)CC3)oc2c1 9.74%
CC(=O)c1c(C)n(-c2ccc(C)cc2)c2ccc(OC(=O)COc3ccccc3)cc12 -11.3%
O=C(Nc1ccc2oc(-c3ccc4ccccc4c3)nc2c1)c1cc(Cl)ccc1Cl 4.84%
Cc1ccc(C2CC(=O)n3nc(-c4cccc(C)c4)nc3S2)cc1 (stereo unspecified) 3.87%
COc1cc(-c2ccno2)ccc1S(=O)(=O)N1CCN(c2ccccc2)CC1 -8.74%
CC(C)C(=O)Nc1nnc(SCc2cc(=O)n3ccccc3n2)s1 -13.7%
CN(C)c1ccc(CNC(=O)C2CCN(S(=O)(=O)c3ccc4[nH]c(=O)ccc4c3)CC2)cc1 -1%
CC(C)C(=O)Nc1cccc(C(=O)Nc2nnc(C(F)(F)F)s2)c1 -3.24%
CCOc1ccccc1NC(=O)CCc1c(C)nc2cc(-c3ccccc3)nn2c1C -5.43%
Cc1ccc(NC(=O)CN(c2ccc(C)cc2)S(=O)(=O)c2cccc3nonc23)cc1 5.62%
CCOCCCn1c(=N)c(C(=O)NCc2ccccc2)cc2c(=O)n3ccccc3nc21 -1.13%
COc1cccc(NC(=O)Cn2c(=O)n(CCc3cccc(C)c3)c(=O)c3ccccc32)c1 0.771%
Cc1c2cnn(-c3ccccc3)c(=O)c2c(C)n1C(C)C(=O)NCc1cccc(Br)c1 (stereo unspecified) -8.6%
Cc1cccc(NC(=O)c2c(NC(=O)c3ccco3)sc3c2CCC(C)C3)c1 (stereo unspecified) -1.12%
Cc1ccc(NC(=O)Cn2nc(-c3ccccc3)nc(Cc3ccccc3)c2=O)cc1 5.16%
COc1cccc(CNC(=O)c2ccc3c(c2)nc2n3CCC(C)C2)c1 (stereo unspecified) 5.15%
COc1ccc(-n2nc(-c3ccc(C)cc3)c3cnc4cc(F)c(F)cc4c32)cc1 0.47%
Cc1ccccc1C(=O)Nc1ccccc1-c1nc(-c2ccccc2)no1 -2.27%
Cc1nc(-c2cccc(F)c2)sc1CCNC(=O)C(=O)Nc1ccc2c(c1)OCCO2 0.522%
CCc1nc2nc(C)c(NS(=O)(=O)c3ccc(F)c(C)c3)c(=O)n2[nH]1 1.73%
CCOc1ccc2nc(N3CCCC(C(=O)NCCc4ccc(C)cc4)C3)sc2c1 (stereo unspecified) -5.75%
Cc1ccc(NC(=O)CSc2nc3ccccc3n2CC(=O)N(C)C2CCCCC2)cc1C 0%
CC(C(=O)Nc1ccccc1)n1nnc2sc3c(c2c1=O)CCCC3 (stereo unspecified) -1.89%
CCCCn1c(CNC(=O)C23CC4CC(CC(C4)C2)C3)nnc1SCC(=O)Nc1ccc(F)cc1 -2.7%
Cc1cccc(NC(=O)Nc2nnc(N3CCCC3)s2)c1 -0.473%
Cc1cccc(Cn2c(=O)n(Cc3ccccc3)c(=O)c3sc4ccccc4c32)c1 0.652%
Cc1cc(C(=O)NCc2ccccc2)c2c(C)nn(-c3cccc(Cl)c3C)c2n1 -10.5%
Cc1ccc(NC(=O)C2CCCN2S(=O)(=O)c2ccc3nc(-c4ccccc4)[nH]c3c2)cc1C (stereo unspecified) -29.4%
Cc1ccc(S(=O)(=O)C(CNS(=O)(=O)c2ccc(F)c(C)c2)c2cccs2)cc1 (stereo unspecified) -3.86%
O=C(NCCS(=O)(=O)N1CCN(c2ccccc2F)CC1)C1CC(=O)N(c2ccc(F)cc2)C1 (stereo unspecified) -5.18%
CCc1ccccc1N(CC)C(=O)Cn1nc(Cc2ccncc2)c2ccccc2c1=O 2.49%
Cc1ccc(OCC(=O)Nc2cccc3ccc(C)nc23)c(C)c1 -5.72%
Cc1cccc(NC(=O)COc2ccc3oc4c(c3c2)CCCC4)c1 6.54%
COc1ccc(CNC(=O)C(=O)NCC(c2cccs2)S(=O)(=O)c2cccs2)cc1 (stereo unspecified) 1.47%
O=C(CCc1nc(-c2cccs2)no1)Nc1ccc([N+](=O)[O-])cc1 -0.356%
O=C(NCc1ccccc1Cl)c1ccc(-n2cnc3cccnc32)cc1 1.51%
CCOc1ccccc1NC(=O)Cn1nc(N2CCN(c3ccccc3)CC2)ccc1=O -2.69%
Cn1c(/C(C#N)=C/c2ccc(C(F)(F)F)cc2)nc2ccccc21 8.09%
